PubChem BioAssay (NCI)
“And” between values parts separate entries of the source, which are not always exact repeats. Equal values may be shown once.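 Step 1: Grow cells in 96-well plates. Step 2: Expose to compound for 48 hours at 5 concentrations. Step 3: Interpolate endpoints linearly; if unreached, use highest concentration. The concentration for 50% growth inhibition is given as GI50. Definition used: TGI = concentration required for complete inhibition of growth.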

What follows are compounds tested on NCI-H322M lung (assay: NCI tumour cell line growth inhibition, 48 h).
`COc1ccc(Cl)cc1N1C(=O)C(Cl)=C(Nc2cccc(O)c2)C1=O` was tested, and the GI50 was 29.3 µM and the TGI was over 100 µM.
Compound `COc1ccc(NC=O)c(C(O)CCNC(C)=O)c1` (stereo unspecified) has a TGI of over 100 µM.
`COc1nccc(-c2c(-c3ccc(F)cc3)ncn2C2CCC(O)CC2)n1` (stereo unspecified) gave a GI50 of 33.7 µM and a TGI of over 100 µM.
Compound `COC(=O)c1nc(-c2ccc(Cl)c(Cl)c2)nc2ccccc12` has a TGI of over 100 µM.
`O=C1C(NCCc2cc(Br)c(O)c(Br)c2)=CC(=O)c2ncccc21` showed a TGI of 6.69 µM.
`CC[C@@]1(O)C(=O)OCc2c1c(Cl)c1n(c2=O)Cc2cc3ccccc3nc2-1` was tested, and the TGI was over 67.8 µM.
`CC(C)(C)Cn1c(N)nc2ccc(-c3[nH]c(C(C)(C)C)nc3-c3ccc(F)cc3)nc21` gave a GI50 of 5.64 µM and a TGI of 20.3 µM.
Compound `O=C1CCC(c2nc3ccccc3o2)C(=O)N1` (stereo unspecified) has a TGI of over 100 µM.
For `N=C(c1ccccc1)N1CCCCC1`, the TGI was over 100 µM.
With `Cn1c2ccccc2c2c(=O)n(CCCC(=O)NCC(=O)OC(=NC3CCCCC3)NC3CCCCC3)c3c(-c4ccccc4)nnn3c21` the GI50 was over 100 µM and the TGI was over 100 µM.
`C1CSCC2(COC2)CS1` showed a TGI of over 100 µM.
Compound `CCCOc1ccc(/C=C\c2cc(OC)c(OC)c(OC)c2)cc1` has a TGI of over 100 µM.
`O=S(=O)(CC1=NC2C=CC=CC2N=C1)NCc1ccccc1` (stereo unspecified) was tested, and the TGI was over 100 µM.
`CCN(CC)c1ccc(/C=C/C2=NN(c3cccc(S(=O)(=O)O)c3)C3(C2)C(Cl)C(=O)N3c2nc3ccccc3s2)cc1` (stereo unspecified) showed a TGI of 30.3 µM.
Work on `O=C(O)Cc1cc(=O)oc2cc(O)c(Cl)cc12` yielded a TGI of over 100 µM.
`Cc1ccccc1C(C#N)/C(=N/NC(=O)c1cc2ccccc2cc1O)C(=O)Nc1cccc(Cl)c1` (stereo unspecified) was tested, and the TGI was over 100 µM.
For `Cc1c(-c2ccccc2)c(-c2ccc(OCCN(C)C)cc2)n2ccccc12`, the TGI was 22.3 µM.
`Cn1c(=O)nc2n(CCO)c(-c3ccccc3)c(-c3ccccc3)nc-2c1=O` gave a TGI of over 100 µM.
For `Cc1cccc(C(C)O)n1` (stereo unspecified), the TGI was over 100 µM.
In the case of `CCCCCCC(C)CC(CCCCCC)NCCOC(=O)c1ccc([N+](=O)[O-])cc1` (stereo unspecified), the TGI is reported as 25.3 µM and 26.2 µM.
`N#Cc1nc(-c2cccc(Br)c2)cc(-c2ccc(Nc3nc(N4CCCCC4)nc(N4CCCCC4)n3)cc2)c1N` showed a GI50 of 6.81 µM and a TGI of over 100 µM.
In the case of `N#C/C(=C\c1cn(-c2ccccc2)c2ccccc12)C(=O)O`, the GI50 is reported as 83.6 µM and the TGI is reported as over 100 µM.
Compound `CN(C)c1ccc(C2CC(=O)CC(c3ccc(N(C)C)cc3)C23C(=O)NC(=O)NC3=O)cc1` (stereo unspecified) has a TGI of over 25 µM.
Compound `CC1CCC2(OC1)OC1CC3C4CC=C5CC(OC6OC(CO)C(OC7OC(C)C(OC8OC(C)C(O)C(O)C8O)C(O)C7O)C(O)C6OC6OC(C)C(O)C(O)C6O)CCC5(C)C4CCC3(C)C1C2C` (stereo unspecified) has a TGI of 1.82 µM.
`C=C1C(=O)O[C@H]2[C@H]1CC/C(COC(=O)NCCc1ccc(OC)cc1)=C\CC[C@@]1(C)O[C@@H]21` showed a GI50 of 12.6 µM and a TGI of 26.1 µM.
`O=C(O)CCC(=O)Nc1ccc2c(c1)S(=O)(=O)N(CC(=O)O)C2=O` showed a TGI of over 100 µM.
`O=C(CC(=O)Nc1ccc(Cl)cc1)NNCC(=O)Nc1nc(-c2ccccc2)cs1` gave a TGI of over 100 µM.
`CC(SC1=CC(=O)c2c(Cl)ccc(O)c2C1=O)C(=O)O` (stereo unspecified) showed a TGI of 31.3 µM.
With `COc1ccc(/C=C2/C(=O)N(C(=O)c3ccc(Cl)cc3)N=C2C)cc1OC` the TGI was over 100 µM.
`CCOC(=O)[C@H]1C[C@@H](C(=O)c2ccccc2)N2N=C(c3ccc(Br)cc3)C=C[C@H]12` showed a TGI of over 100 µM.
`N[C@@H]1C[C@H](N)c2c(Cl)sc(Cl)c21` was tested, and the TGI was over 100 µM.
Compound `CSC1=N/C(=C\c2cccs2)C(=O)N1CN1CCCCC1` has a TGI of over 100 µM.
Work on `COC(=O)c1c2c(c(C)[n+]([O-])c1C)C(=O)C=C(NCc1ccc(Cl)cc1)C2=O` yielded a GI50 of 0.411 µM and a TGI of 1.81 µM.
`CCCCCCCCCCCCCCCCC(C(=O)O)C(O)(CC(=O)O)C(=O)O` (stereo unspecified) showed a TGI of 35.2 µM.
With `Cc1sc2ncnc(NCCc3ccccc3)c2c1C` the TGI was 53.3 µM.
`Cc1ccc2sc3cc(=O)cc(C)c-3nc2c1` gave a TGI of over 100 µM.
Compound `CCOC(=O)c1sc(=S)c2c(C(=O)c3ccccc3)c(C(=O)c3ccccc3)sc2c1C(=O)OCC` has a GI50 of 5.18 µM and a TGI of 77.3 µM.
In the case of `Cc1cccc(C(C)(C)C)c1NC(=O)CC1C(=O)Nc2ccccc2S1=O` (stereo unspecified), the TGI is reported as over 100 µM.
`Clc1nc(Cl)c2ncn(C/C=C\Cn3cnc4c(Cl)nc(Cl)nc43)c2n1` showed a GI50 of 3.75 µM and a TGI of 12.5 µM.
`COc1cc2c(cc1OC)-c1c(cnn1C1OC(COC(C)=O)C(OC(C)=O)C(OC(C)=O)C1OC(C)=O)CC2` (stereo unspecified) was tested, and the TGI was over 100 µM.
Compound `Nc1ncc2c(n1)-c1ccccc1OC2NC1CC1` (stereo unspecified) has a TGI of over 100 µM.
`N#Cc1c(NC(=O)c2cccs2)[n+]([O-])c2ccccc2[n+]1[O-]` showed a GI50 of over 100 µM and a TGI of over 100 µM.
`CCN(CC)c1ccc(/C=N/NC(=O)c2ccc(Nc3ccnc(C(F)(F)F)c3)cc2)c(O)c1` gave a GI50 of 0.31 µM and a TGI of over 39.3 µM.
In the case of `O=[N+]([O-])c1cccc(-c2nc3sccn3c2-c2ccnc(NCCCNS(=O)(=O)c3ccc(F)cc3)n2)c1`, the GI50 is reported as 3.21 µM and the TGI is reported as over 100 µM.
Compound `CCN(CC)CCC(=O)Nc1cccc2c1C(=O)c1c(c(O)c3ccccc3c1O)C2=O` has a GI50 of 34.1 µM and a TGI of over 100 µM.
Compound `Nc1ccc(N=Nc2ccc(/C=C/c3ccc(N=Nc4ccc(N)c5ccc(S(=O)(=O)O)cc45)cc3S(=O)(=O)O)c(S(=O)(=O)O)c2)c2cc(S(=O)(=O)O)ccc12` has a TGI of over 100 µM.
For `CCC(=O)N(c1ccccc1)C(C)CN1CCC(O)(c2ccccc2)CC1` (stereo unspecified), the TGI was over 100 µM.
